In one data set the test system is Colo205 cells. Briefly: Colo205 cell based caspase-3/7 apoptosis assay. On the set-up: species or system human. The following applies: Colo205, relative luminescence (FIG. 20C). As to the method: Samples of antibodies 4241 and 4341 were compared with positive control IgG1 anti-TR2 mAb 16449. The prepared antibody samples were added to TRAIL-sensitive human ascites colorectal adenocarcinoma cell line Colo205. The detection of TRAIL-mediated caspase-3 activation by measuring an increase in relative luminescence was used as a positive marker for apoptosis.
Colo205 is a human colon carcinoma cell line that is sensitive to the presence of TRAIL. […] A Colo205 based cell assay was developed to verify the cell killing efficacy of antibodies. The in vitro biological activity of the Antibody 16449 (anti-TRAIL-R2 antibody) is analyzed by its ability to induce apoptosis in human ascites colorectal adenocarcinoma cell line Colo205. The detection of caspase-3 activation is used as a positive marker for apoptosis, using the Apo-One™ Homogeneous Caspase™-3/7 assay kit (PromegaCorporation, Madison, Wis.), according to the manufacturer's instruction. (see, Niles et al., The Apo-One™. Homogeneous Caspase™-3/7 assay: a simplified “solution” for apoptosis detection, Cell Notes 2:2-3 (2001)). […] Luminescence produced is proportional to the amount of caspase activity present. The luminescence of each sample is measured in a plate-reading luminometer. Biological activity of the test sample is determined by comparing test sample response to Reference Standard response. […]

Data set [1] can be described thus: Rat PK, 5 mg/kg SC (Example 10). Particulars: SD rat, SC 5 mg/kg. Type of data set: in vivo, Sprague-Dawley (SD) rats. As for the experimental part: The pharmacokinetic profiles of the 16435 and 4341 antibodies were determined in adult Sprague-Dawley (SD) rats (n=3 per group) by injecting 5 mg/kg subcutaneously and collecting approximately 250 μL of blood in Microtainer® serum separator tubes at 0, 0.25, 1, 4, 24, 48, 72, 168, 336, 504, 672, 840 and 1008 hours post-dose from the lateral tail vein. Each sample was maintained at room temperature following collection, and following a 30-40 minute clotting period, samples were centrifuged at 2-8° C. at 11,500 rpm for about 10 minutes using a calibrated Eppendorf 5417R Centrifuge System (Brinkmann Instruments, Inc., Westbury, N.Y.). The collected serum was then transferred into a pre-labeled (for each rat), cryogenic storage tube and stored at −60° C. to −80° C. for future analysis. To measure the serum sample concentrations from the PK study samples, the following method was used: ½ area black plate (Corning 3694) was coated with 2 μg/ml of anti-hu Fc, antibody 1.35.1 in PBS and then incubated overnight at 4° C. The plate was then washed and blocked with I-Block™ (Applied Biosystems) overnight at 4° C. If samples needed to be diluted, then they were diluted in Rat SD serum. The standards and samples were then diluted 1:20 in 1×PBS+1M NaCl+0.5% Tween 20 and 1% BSA buffer (5% serum). The plate was washed and 50-μl samples of diluted standards and samples were transferred into an antibody 1.35.1 coated plate and incubated for 1.5 h at room temperature. The plate was washed, then 50 μl of 100 ng/ml of anti-hu Fc antibody 21.1-HRP conjugate in I-Block™+5% BSA was added and incubated for 1.5 h. The plate was washed, then 50 μl of Pico substrate were added, after which the plate was immediately analyzed with a luminometer. Time concentration data were analyzed using non-compartmental methods with WinNonLin® (Enterprise version 5.1.1, 2006, Pharsight® Corp. Mountain View, Calif.) (figure 34.0). Both molecules have good PK profile in rats with half life of over 10 days.

The nature of data set [2]: Cynomolgus PK, sequential SC doses (Example 10). The format is in vivo, cynomolgus monkeys. As for the experimental part:
The pharmacokinetic profiles of the 16435 and 4341 antibodies were also determined in cynomolgus monkeys (n=2 per group) by injecting of two subsequent subcutaneous doses of 1 mg/kg at day 0 and 5 mg/kg at day 57. Serum samples were collected at pre-dose, 0.5, 2, 4, 8, 12, 24, 48, 96, 168, 336, 504, 672, 840, 1008, 1176, 1344 (prior to second dose) hours post 1st dose at 1 mg/kg and 0.5, 2, 4, 8, 12, 24, 48, 96, 168, 336, 360, 384, 432, 504, 672, 840, 1008, 1176, 1344 following post 2nd dose at 5 mg/kg. The samples were assayed for the 16435 and 4341 antibody levels by using an anti-IgG sandwich ELISA as described above. Time concentration data were analyzed using non-compartmental methods with WinNonLin®. […] If there had been a significant immune response causing abnormal antibody clearance, it would have been expected after the second dose, due to immune system priming by the first dose.

We go through 1 molecule from patent US9803019B2, “Carrier immunoglobulins and uses thereof” (Amgen Inc., priority 2010, dated 2017).

B1: 4341 (antibody)
heavy: QVQLQESGPGLVKPSQTLSLTCTVSGGSISSGDYFWSWIRQLPGKGLEWIGHIHNSGTTYYNPSLKSRVTISVDTSKKQFSLRLSSVTAADTAVYYCARDRGGDYAYGMDVWGQGTTVTVSSASTKGPSVFPLAPSSKSTSGGTAALGCLVKDYFPEPVTVSWNSGALTSGVHTFPAVLQSSGLYSLSSVVTVPSSSLGTQTYICNVNHKPSNTKVDKRV[here human IgG1 Fc without letters]
light: EIVLTQSPGTLSLSPGERATLSCRASQGISRSELAWYQQKPGQAPSLLIYGASSRATGIPDRFSGSGSGTDFTLTISRLEPEDFAVYYCQQFGSSPWTFGQGTKVEIKRTVAAPSVFIFPPSDEQLKSGTASVVCLLNNFYPREAKVQWKVDNALQSGNSQESVTEQDSKDSTYSLSSTLTLSKADYEKHKVYACEVTHQGLSSPVTKSFNRGEC
With B1, the caspase-3 activation result with Colo205 cells is “failed to activate caspase-3”. Further, in data set [1], the AUC0-inf is given as 26,661,802 ng · h/mL; the AUC0-t was 22,280,335 ng · h/mL; the CL/F – broadly, clearance divided by bioavailability, as obtained after extravascular dosing – turned out to be 4.56 mL/day/kg; the Cmax is 38,963 ng/mL. For the same molecule, in data set [1], the MRT (in general, the average time that molecules of a dose stay in the body) came to 24.2 days; the T1/2 is 15.2 days; the time to peak (Tmax) (as a rule, the time from dosing to the highest level) came to 5.67 days. In addition, the “change in clearance mediated by an immune response after multiple dosing” value in data set [2] (1 mg/kg day 0 then 5 mg/kg day 57 SC (FIG. 44)) was “no indication of a significant change in the clearance mediated by an immune response”. Also, in data set [2] (SC), the “clearance in monkey (in words)” value is recorded as “normal hu IgG clearance in monkey” and the half life is roughly 21 days. Moreover, in data set [2] (SC 5 mg/kg), the AUC0-inf is recorded as 51,909,826 ng · h/mL, the AUC0-t is listed as 43,578,088 ng · h/mL, the CL/F came to 2.3 mL/day/kg and the Cmax is reported as 68,166 ng/mL. Further, in data set [2] (SC 5 mg/kg), the MRT turned out to be 30.8 days and the time of peak concentration (Tmax) worked out at 4 days. In data set [2] (SC 5 mg/kg (second dose, day 57, after 1 mg/kg at day 0)), this molecule had a T1/2 of 20.9 days.
